Experimental data from PubChem BioAssay AID1346428 (National Center for Advancing Translational Sciences (NCATS), 2018).
The whole screen tested about 48,000 compounds, of which about 1,200 (2.5%) were called active. About 2% were inconclusive and are not listed.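 How the source made its calls: active means activation of at least 60% and not above a set upper limit (about 1 call in 100 departs from these limits); inconclusive means activation of 40% to 60%, or above that upper limit; inactive means activation under 40%.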 The list shows a part of the results.

biological target: Probable G-protein coupled receptor 32 (Homo sapiens) (UniProt O75388); assay: qHTS for Agonists of Human Resolvin D1 Receptor DRV1; details: CHO-K1 GPR32 beta-arrestin PathHunter luminescence, 90 min; at 76.9 µM; hits give high values; zero percent set by DMSO-only wells; further: 0% is about no effect
Outline: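 Step 1: seed CHO-K1 GPR32 beta-arrestin cells, 2,500/well, overnight at 37 °C. Step 2: add compounds, 90 min at 37 °C. Step 3: detection reagent, 1 h ambient, then luminescence.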

UniProt O75388, sequence (O75388 whole entry, looked up): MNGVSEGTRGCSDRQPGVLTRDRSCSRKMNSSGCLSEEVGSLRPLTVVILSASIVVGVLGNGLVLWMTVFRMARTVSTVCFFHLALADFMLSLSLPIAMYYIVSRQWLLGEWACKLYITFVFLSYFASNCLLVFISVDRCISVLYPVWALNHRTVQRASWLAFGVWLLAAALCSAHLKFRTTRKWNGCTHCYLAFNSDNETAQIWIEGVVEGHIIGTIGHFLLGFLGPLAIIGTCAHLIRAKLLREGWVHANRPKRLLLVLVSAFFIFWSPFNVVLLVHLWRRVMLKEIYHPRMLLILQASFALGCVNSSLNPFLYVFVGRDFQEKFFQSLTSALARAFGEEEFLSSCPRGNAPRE

activation, inactive:
COc1cc(OC)c(NC(=O)C(c2ccccc2)N2Cc3ccccc3C2=O)cc1Cl (configuration not stated) -27.1%
COc1ccc(NC(=O)C2CCN(S(=O)(=O)c3ccc4[nH]c(=O)ccc4c3)CC2)cc1Cl 15.9%
CCS(=O)(=O)N1CC(=O)N(c2ccc(Cl)cc2C)C(C)(C(=O)NC2CCCCCC2)C1 (configuration not stated) 17.2%
CCc1nnc(SCc2cccc(F)c2)c2cc3sc(C)cc3n12 -22.3%
CCOc1ccc(N2CC(c3nc4ccccc4n3CCCOc3ccccc3OC)CC2=O)cc1 (configuration not stated) 35.2%
COc1ccc(CCNC(=O)C2(c3cccs3)CCOCC2)cc1 -4.09%
O=C(Nc1nonc1-c1ccc(Cl)cc1)c1ccccc1F 34.4%
CC(C)CN(CCCNC(=O)c1cc(-c2ccc(Br)s2)nc2ccccc12)CC(C)C -2.03%
CCOC(=O)c1scc(-c2ccccc2)c1S(=O)(=O)Nc1ccc(N(C)C)cc1 -25.2%
COc1ccc(N2CC(NC(=O)/C=C\c3ccc4c(c3)OCO4)CC2=O)cc1 (configuration not stated) -5.59%
Cc1nn2c(C)c(C(=O)N3CCN(c4ccccc4F)CC3)cnc2c1-c1ccc(F)cc1 3.29%
Cc1nnc(SCc2cc(=O)n3cccc(C)c3n2)s1 -23.2%
COCCCNC(=O)c1ccc(Cn2c(=O)c3ccccc3n(CC(=O)Nc3c(C)cccc3C)c2=O)cc1 -9.17%
CCCCCCNc1nc2c(c(=O)n(C)c(=O)n2C)n1Cc1cccc(C)c1 2.59%
CCOc1cc(C(=O)Nc2ccc3nc(Nc4cccc(Cl)c4)cc(C)c3c2)cc(OCC)c1OCC 27.2%
COc1cccc(-c2nc(CS(=O)(=O)CC(=O)NCCc3ccc(OC)cc3OC)c(C)o2)c1 -26.9%
CCCC(CCC)C(=O)Nc1cccc(-c2nc3cccnc3s2)c1C -11.3%
Cc1cccc(CCNC(=O)C2CCC(CNS(=O)(=O)c3ccccc3)CC2)c1 (configuration not stated) 8.51%
CCOC(=O)c1ccc(NC(=O)c2cnn(-c3ccc(C)cc3C)c2C2CCN(C(=O)OC(C)(C)C)CC2)cc1 -9.4%
O=C(NCc1ccccc1Cl)C1CCN(S(=O)(=O)Cc2ccccc2)CC1 13.9%
COc1ccc(Cl)cc1NC(=O)CSC1=Nc2ccccc2C2=NC(CCC(=O)NCc3ccc(F)cc3)C(=O)N12 (configuration not stated) -11.5%
Cc1nc2ccn(Cc3ccco3)c(=O)c2cc1C(=O)NCc1ccccc1F -2.62%
CNS(=O)(=O)Cc1ccc2[nH]cc(CCN(C)C)c2c1 3.33%
N#Cc1ccccc1Cn1c(=O)n(CCCC(=O)NCc2ccccc2Cl)c(=O)c2ccccc21 -4.13%
CC1=C(C(=O)Nc2cccnc2)C(c2ccccc2)n2nc(SCc3ccccc3)nc2N1 (configuration not stated) -6.29%
CCC(=O)N1CCc2cc(CNS(=O)(=O)c3c(C)cc(C)cc3C)ccc21 -25.7%
Cc1ccc(Cn2nnc3sc4c(c3c2=O)CCC(C)C4)cc1 (configuration not stated) 6.99%
Cc1ccc(C)c(NC(=O)CN2C(=O)C3(SCC(=O)N3c3ccc(C)c(C)c3)c3ccccc32)c1 (configuration not stated) -6.42%
O=C(Cn1nc(-c2ccccc2)c2cnc3ccccc3c21)Nc1ccccc1 -13.9%
CC1CCc2nc3ncn(Cc4ccc(Cl)cc4)c(=O)c3cc2C1 (configuration not stated) -16.1%
Cc1ccc2nc(-c3ccc(Cl)c(NC(=O)c4ccc5c(c4)OCCO5)c3)oc2c1 17.1%
Cc1nnc(NCc2ccc(Cl)cc2)c2c1nnn2Cc1ccc(F)cc1 2.97%
COC(=O)c1ccccc1NC(=O)c1cc(-c2ccc(Cl)cc2)on1 3.47%
CCc1ccc2ncc(S(=O)(=O)c3ccc(Cl)cc3)c(N3CCN(CC)CC3)c2c1 -15.9%
Cc1nc2ccccc2n1CCc1nc2c3ccccc3nc(SCC(=O)Nc3cccc(C(F)(F)F)c3)n2n1 25%
Cc1cc(C)cc(-n2c(SCC(=O)N3CCCC3)nc3c([nH]c4ccccc43)c2=O)c1 3.26%
Cc1cc(C)nc(NS(=O)(=O)c2ccc(NC(=O)c3ccccc3O)cc2)n1 -4.51%
CCCCOc1ccc(C(=O)N2CC(=O)Nc3ccc(Br)cc3C2c2ccc(F)cc2)cc1 (configuration not stated) -22.8%
COc1ccc(Br)cc1Cn1nnc(C(=O)Nc2ccc(C)cc2C)c1N -12.1%
COc1ccc2c(Sc3ccccc3)c(C(=O)NCC(C)c3ccccc3)[nH]c2c1 (configuration not stated) -7.56%
Cc1ccccc1NC(=O)CSc1nc(-c2ccc(F)cc2)nc2c1Cc1ccccc1O2 2.7%
Cn1c(=O)n(-c2ccc3c(c2)OCO3)c2nc(-c3ccc(Cl)cc3)nc(C(N)=O)c21 -5.76%
O=C(CCC1N=C2c3ccccc3N=C(SCc3ccccc3Cl)N2C1=O)NCCc1ccccc1 (configuration not stated) 5.91%
Cc1cccc(OC(C)C(=O)Nc2nonc2-c2ccc(Br)cc2)c1C (configuration not stated) 14.2%
CCOC(=O)[C@H](CCc1ccccc1)N[C@@H](C)C(=O)N1[C@H](C(=O)O)C[C@@H]2CCC[C@@H]21 -7.75%
COc1ccc(C2=C(C)C(=O)N(Cc3ccc(C(=O)NC(C)c4ccccc4)cc3)S2(=O)=O)cc1 (configuration not stated) -17.5%
Cc1cc(=O)n2nc(N3CCC(C(=O)Nc4c(C)cccc4C)CC3)sc2n1 -24.2%
CCOc1ccc(N2CC(c3nc4ccccc4n3CCCCOc3ccc(OC)cc3)CC2=O)cc1 (configuration not stated) -22.3%
Cc1cccc(N2C(=O)CSC23C(=O)N(CC(=O)Nc2cccc(Cl)c2)c2ccccc23)c1 (configuration not stated) -0.335%
CC1CCN(S(=O)(=O)c2cc3c4c(c2)C(C)C(=O)N4CCC3)CC1 (configuration not stated) -14.5%
COc1ccc(CNC(=O)CN2C(=O)CSc3ccc(S(=O)(=O)N(C)C)cc32)cc1 -11.2%
O=C(NC1CCCCCC1)C1c2ccccc2C(=O)N1Cc1ccc(F)cc1 (configuration not stated) -1.09%
